Here are results for 88 compounds from paper PMC4336329 (PLoS ONE, 2015).

Hit rate of the full screen: of about 310,000 compounds, about 14,000 (4.5%) showed an effect of 50% or more. Effects have a minus sign here. The list shows a part of the results.
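Also: peak tail current of the secondary pulse compared with the same well before compound.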

Chain of human ether-à-go-go-related gene (hERG) potassium channel (Q12809 whole entry, looked up): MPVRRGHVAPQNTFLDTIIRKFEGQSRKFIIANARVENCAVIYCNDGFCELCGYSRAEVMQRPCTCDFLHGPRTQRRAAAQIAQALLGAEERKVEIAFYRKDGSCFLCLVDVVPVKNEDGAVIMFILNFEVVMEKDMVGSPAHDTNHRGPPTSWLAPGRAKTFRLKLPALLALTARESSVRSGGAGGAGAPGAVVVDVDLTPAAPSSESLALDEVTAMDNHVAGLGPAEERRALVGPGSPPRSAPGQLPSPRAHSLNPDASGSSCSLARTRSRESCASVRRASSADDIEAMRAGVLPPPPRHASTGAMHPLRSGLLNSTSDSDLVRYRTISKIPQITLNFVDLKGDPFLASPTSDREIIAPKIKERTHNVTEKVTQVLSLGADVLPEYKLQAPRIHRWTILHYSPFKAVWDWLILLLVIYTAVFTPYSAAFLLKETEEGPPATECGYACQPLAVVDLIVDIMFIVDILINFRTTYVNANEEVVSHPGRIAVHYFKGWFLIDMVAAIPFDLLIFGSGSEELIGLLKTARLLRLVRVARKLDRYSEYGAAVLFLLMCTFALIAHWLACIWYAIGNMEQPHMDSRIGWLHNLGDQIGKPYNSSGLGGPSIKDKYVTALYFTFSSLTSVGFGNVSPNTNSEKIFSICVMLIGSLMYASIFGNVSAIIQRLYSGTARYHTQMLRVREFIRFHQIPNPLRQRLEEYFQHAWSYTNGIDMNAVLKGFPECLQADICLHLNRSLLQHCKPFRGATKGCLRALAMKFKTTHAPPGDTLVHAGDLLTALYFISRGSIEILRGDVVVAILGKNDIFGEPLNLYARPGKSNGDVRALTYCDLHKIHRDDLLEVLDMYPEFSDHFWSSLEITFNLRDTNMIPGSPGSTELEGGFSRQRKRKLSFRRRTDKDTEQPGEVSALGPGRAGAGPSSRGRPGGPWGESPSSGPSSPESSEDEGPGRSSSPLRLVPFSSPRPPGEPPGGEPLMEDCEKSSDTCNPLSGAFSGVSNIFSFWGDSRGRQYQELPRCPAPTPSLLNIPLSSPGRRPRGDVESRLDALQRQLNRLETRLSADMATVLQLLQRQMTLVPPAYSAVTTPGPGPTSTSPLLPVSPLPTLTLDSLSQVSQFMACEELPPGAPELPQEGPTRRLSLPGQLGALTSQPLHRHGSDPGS

The experiment addresses human ether-à-go-go-related gene (hERG) potassium channel (human, UniProt Q12809). In words: primary screen, population patch clamp on CHO cells stably expressing hERG.
Take `Cc1ccc(S(=O)(=O)N(CC(=O)N/N=C/c2cccc(Cl)c2)c2cccc3cccnc23)cc1`: the “hERG current change (%, negative = inhibition) at 10uM” value stood at 4.63%.
As for `CCNC(=O)C(C)Oc1ccc(Cl)cc1Cl` (stereo not shown), the “hERG current change (%, negative = inhibition) at 10uM” value amounted to 9.68%.
Under `O=C(CCn1cccc1)NCCc1ccc(Cl)cc1` stands 0.814%; under `O=C(O)C(=O)O.O=C(c1ccccc1)c1ccc(OCCCN2CCCCC2)cc1`, -66.4%.
Consider `CCC(C)c1ccc(NC(=O)NCc2cccnc2)cc1` (stereo not shown), for which the “hERG current change (%, negative = inhibition) at 10uM” value is listed as -2.72%.
With `Cc1cccc(-n2cnc(C(=O)NC3CCCCCC3)c2)n1` the figure was -24.1%; with `O=C(O)c1cccc(-n2cccc2/C=C2/NC(=O)N(c3cccc(Cl)c3)C2=O)c1`, 12.4%; with `CCCC(=O)NC(c1cccs1)c1cc(Cl)c2cccnc2c1O` (stereo not shown), -23.8%.
Under `O=C(CCN1C(=O)/C(=C/c2ccccc2Cl)SC1=S)Nc1ccccn1` stands 2.26%; under `O=C(CCCC(=O)N(CC(=O)NC1CCCC1)Cc1ccccc1)Nc1ccccn1`, 1.59%.
Under `O=C(Nc1ccn(Cc2ccc(F)cc2)n1)c1ccncc1` stands 18.3%; under `FC(F)(F)c1nnc(N2CCN(c3ccc(Cl)cc3)CC2)s1`, 11.1%.
With `O=C(Nc1ccc2c(c1)OCCO2)NC1CCCCC1`, the “hERG current change (%, negative = inhibition) at 10uM” value is given as -13.9%.
For `CNC(=O)c1cc(Cl)c(OC)c(OC)c1`, the “hERG current change (%, negative = inhibition) at 10uM” value worked out at 11.9%.
With `C/C(=C/C(=O)N1CCN(C)CC1)C(=O)O` the figure was 22.2%.
Under `CC1CCC(NC(=O)COC(=O)c2n[nH]c(=O)c3ccccc23)CC1` (stereo not shown) stands -13.6%.
With `Cc1ccc2c(c1)nnn2C1CCN(S(=O)(=O)c2ccc(C(=O)O)cc2)CC1` the figure was 19.3%; with `CCOC(=O)C1CCN(CCC(=O)Nc2cccc(Cl)c2C)CC1`, -5.48%; with `COc1ccc(Cl)cc1NC(=O)CN(C)C(=O)c1cc2c(F)cccc2s1`, -6.32%.
Take `CCN(CC)S(=O)(=O)c1ccc(N/N=C/c2cccnc2)nc1`: the “hERG current change (%, negative = inhibition) at 10uM” value was -9.7%.
Under `CC(=O)n1cc([C@H]2C=C(C(=O)N3CCN(Cc4ccc5c(c4)OCO5)CC3)O[C@@H](OCCCCO)C2)c2ccccc21` stands -32.7%.
Under `CC(c1nccs1)N(C)c1nc2nonc2nc1N(C)C` (stereo not shown) stands -12.6%; under `C#CC[N+](C)(C)CCCCCCCCCC.[Br-]`, -38.4%.
With `Cc1cccc(C)c1OCc1nc2ccccc2c(=O)n1/N=C/c1c[nH]c2ccccc12` the figure was 26%; with `C[C@H](NC(=O)c1[nH]cnc1C(=O)Nc1ccc(CNC(=O)OC(C)(C)C)cc1)C(=O)OCc1ccccc1`, -1.26%; with `COC(=O)Cn1cnc2c(oc3ccccc32)c1=O`, 15.2%.
For `Cc1nc(S(=O)(=O)c2ccc(Br)cc2)nc2c1CCC2`, the “hERG current change (%, negative = inhibition) at 10uM” value is -8.48%.
With `CCCc1[nH]n(-c2ccc([N+](=O)[O-])cc2)c(=O)c1C=NCCc1ccc(OC)c(OC)c1` the figure was -19.4%.
With `O=C1NC(=O)c2cc([N+](=O)[O-])cc3cccc1c23` the figure was 4.52%; with `CC[C@H](C)[C@H](NC(N)=O)C(=O)NCCc1ccc(OC)c(OC)c1`, 20.1%; with `O=C(COC(=O)/C=C/C(=O)OCC(=O)NC12CC3CC(CC(C3)C1)C2)NC12CC3CC(CC(C3)C1)C2`, 19.3%.
Under `COCC(=O)N(Cc1cc2ccccc2[nH]c1=O)c1ccccc1OC` stands 11.6%; under `CS(=O)(=O)Cc1ccc(C(=O)N2CCCC2c2cccs2)cc1` (stereo not shown), 16.9%.
As to `Cc1cc(C(=O)COC(=O)c2ccco2)c(C)n1Cc1ccco1`, the “hERG current change (%, negative = inhibition) at 10uM” value turned out to be 4.9%.
Under `CCCCOC(=O)Nc1ccc(S(=O)(=O)Nc2nc(C)cc(C)n2)cc1` stands 5.13%.
Under `Nc1ccccc1N1CCOCC1` stands 7.22%.
Under `COc1ccc(NC(=O)CCNC(=O)c2ccccc2Cl)cc1OC` stands 5.24%; under `NS(=O)(=O)c1ccc(NC(=O)CSc2nnc(-c3cnccn3)n2-c2ccccc2)cc1`, 10.1%; under `O=C(NCCC1=CCCCC1)c1cccc(S(=O)(=O)N2CCCCC2)c1`, -9.93%.
`CCOP(=O)(OCC)C(Nc1cc(Cl)cc(Cl)c1)c1cccc(O)c1` (stereo not shown): the “hERG current change (%, negative = inhibition) at 10uM” value was -38.6%.
With `Oc1oc(-c2ccc(Br)cc2)nc1C=Nc1ccc(Br)cn1` the figure was 14.1%; with `CCOc1ccc(NC(=O)CN2C(=O)C3CCCN3C2=O)cc1` (stereo not shown), 5.45%; with `O=[N+]([O-])c1ccc2[nH]c(O)c(N=NC(=S)NCC3CCCO3)c2c1` (stereo not shown), 0.292%.
With `Nc1ccc(Sc2cc(Cl)nc(N)n2)cc1` the figure was 7.8%.
In the case of `CC(C)N(C)S(=O)(=O)c1ccc(NC(=O)C2=COCCO2)cc1`, the “hERG current change (%, negative = inhibition) at 10uM” value is on record as -3.34%.
Take `CN(CC(=O)Nc1ccc(Cl)c(Cl)c1)C(=O)C12CC3CC(CC(C3)C1)C2`: the “hERG current change (%, negative = inhibition) at 10uM” value came out at 8.7%.
With `COC(=O)c1sc2ncccc2c1OCc1ccc(Cl)cc1Cl` the figure was 4.82%; with `CCn1cc(CNC(=O)c2c(-c3c(Cl)cccc3Cl)noc2C)c(C)n1`, -1.38%.
With `Cc1ccc(NC2CCCN(C(=O)c3cn4cccc(C)c4n3)C2)cc1C` (stereo not shown) the figure was -4.07%.
With `O=C(NC1CCNCC1)C1CCCCC1` the figure was -6.22%.
As to `Cc1c(NS(=O)(=O)c2ccc3c(c2)NC(=O)CC(=O)N3)cccc1[N+](=O)[O-]`, the “hERG current change (%, negative = inhibition) at 10uM” value stood at 24.3%.
With `CC(C)c1ccc(C(C)NCCS(=O)(=O)c2ccc(Br)cc2)cc1` (stereo not shown), the “hERG current change (%, negative = inhibition) at 10uM” value is reported as -12.5%.
With `C[C@H]1CN=C(N(C)C)N1CCc1ccc(F)cc1` the figure was -12.4%; with `COc1ccc(C(=O)CSc2nnc(CNc3ccc(C)cc3C)o2)cc1`, 11.7%; with `NN(CCO)C(=S)Nc1ccc(Cl)cc1`, 21.4%.
Under `COc1ccccc1-c1cc(-c2ccccc2)nc(SCC(=O)O)c1C#N` stands 20.1%.
Under `O=C(Nc1cc2c(cc1Cl)OCCCO2)c1ccc(F)cc1` stands 4.28%; under `Cc1ccc(/C=C/C(=O)NCc2cccs2)c(C)c1`, 11.9%; under `Cl.O=C(O)C1CCN(Cc2cccnc2)CC1`, 28.7%.
As for `COc1ccccc1N1CCN(C(CNC(=O)C2CCCCC2)c2cccnc2)CC1` (stereo not shown), the “hERG current change (%, negative = inhibition) at 10uM” value is recorded as -6.45%.
For the compound `COc1ccc(C2SCCN2S(=O)(=O)c2ccccc2)cc1OC` (stereo not shown), the “hERG current change (%, negative = inhibition) at 10uM” value is listed as -2.42%.
In the case of `O=C(Nc1cccc(-c2ccc(F)cc2)c1)C1CCCN(Cc2cccnc2)C1` (stereo not shown), the “hERG current change (%, negative = inhibition) at 10uM” value is reported as -60.2%.
Take `O=C(O)c1cc(S(=O)(=O)N2CCCCC2)ccc1N1CCCCC1`: the “hERG current change (%, negative = inhibition) at 10uM” value is reported as 9.05%.
Under `CCC(C(=O)OCC(=O)N(CCOC)c1c(N)n(Cc2ccccc2)c(=O)[nH]c1=O)c1ccccc1` (stereo not shown) stands -3.03%.
Under `O=C(NC(Cc1c[nH]c2ccccc12)c1nnc2n1CCCCC2)c1ccccc1` (stereo not shown) stands 18.7%.
With `Cc1nc(N)nc(N/N=C/c2c(F)cccc2Cl)n1` the figure was 3.11%.
Take `CC(C)CN(CC(C)C)S(=O)(=O)N1CCC(C(=O)N2CCc3ccccc3C2)CC1`: the “hERG current change (%, negative = inhibition) at 10uM” value turned out to be 12.2%.
Under `Cc1nn(C(C)C(=O)NCCN2CCCC2)c(=O)c2c1sc1ccccc12` (stereo not shown) stands 1.56%.
In the case of `CC1=NN(Cc2cc(C(C)(C)C)c(O)c(C(C)(C)C)c2)C(=O)C1`, the “hERG current change (%, negative = inhibition) at 10uM” value came to 17.2%.
Under `O=C(Nc1cccnc1)c1ccc(Cl)c([N+](=O)[O-])c1` stands 0.489%.
As to `COc1ccc(C(C(=O)NC2CCCC2)N(Cc2ccc(C)cc2)C(=O)c2ccn[nH]2)cc1OC` (stereo not shown), the “hERG current change (%, negative = inhibition) at 10uM” value came out at 1.16%.
Under `O=C(CCc1ccccc1)NNC(=O)Nc1cccc(Cl)c1` stands -36.7%; under `CCCc1nc(SCC(=O)N2CCCCCC2)c2c(=O)n(C)c(=O)n(C)c2n1`, -25.5%; under `Cc1ccc(-n2c(SCC(=O)NCC3CCCO3)nc3n[nH]c(C)c3c2=N)cc1Cl` (stereo not shown), 1.46%.
Under `O=C(Cc1ccccc1)NN1C(=O)C2C3C=CC([C@@H]2C1=O)C31CC1` (stereo partly shown) stands 15.7%; under `Cc1ccc(C)c(C(=O)N(C)CC(=O)Nc2ccccc2C(F)(F)F)c1`, 6.75%.
On to `CC(C)NS(=O)(=O)c1ccc(OCC(=O)N2CCN(Cc3ccccc3)CC2)cc1`, for which the “hERG current change (%, negative = inhibition) at 10uM” value is -9.11%.
With `N#CCC(=O)NCCCc1ccccc1` the figure was 17%; with `CCOC(=O)c1cc(CC)sc1NC(=O)c1cc(OC)c(OC)c(OC)c1`, 8.5%.
With `CC(=O)c1ccc(N2C(=NC(=O)C3CCCCC3)SC3CS(=O)(=O)CC32)cc1` (stereo not shown) the figure was -20.7%; with `CN(C)C=O.CNc1nc2[nH]c(=O)c3c(c2s1)OC(N)=C(C#N)C3c1ccccc1` (stereo not shown), 11.6%; with `COc1ccc(Cl)cc1S(=O)(=O)N1CCN(CC(=O)C(C)(C)C)CC1`, 7.45%.
Regarding `CCOC(=O)C(O)(c1cn(C)c2ccccc12)C(F)(F)F` (stereo not shown), the “hERG current change (%, negative = inhibition) at 10uM” value worked out at 12.3%.
With `Cc1ccc(/C(O)=C2/C(=O)C(=O)N(CCN3CCOCC3)C2c2ccccn2)cc1` (stereo not shown) the figure was 18.9%; with `CC(=O)c1ccc2c3c(cccc13)C(=O)N(c1c(C)nn(C)c1C)C2=O`, 12.9%.
Under `CCOC(=O)c1c(C)[nH]c(C)c1C(=O)COc1ccc(NC(=O)c2ccco2)cc1` stands 2.97%; under `CC(=O)NCCNC(=O)c1ccc(CSc2ccc(Cl)cc2)cc1`, -2.38%.
With `COc1cc(NS(=O)(=O)c2ccc3c(c2)n(C)c(=O)n3C)cc(OC)c1` the figure was 7.15%.
